The values below come from the supplement of paper PMC9446081.

The structures appear in SMILES notation. The whole screen tested about 39,000 compounds, of which about 220 (0.56%) showed activity. Some of the results follow.
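Further: static incubation at 37 °C against the wild-type strain, values averaged over two biological replicates.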

This test has as its system Escherichia coli K-12 BW25113. Description: relative growth (OD600 normalised to plate interquartile mean) (fraction); higher = less growth inhibition, active = 0.2 or less. The settings on record: 50 µM; LB; incubation time: overnight (16-24 h).
For `C[C@@H]1CCCCO[C@@H](CN(C)Cc2ccc3c(c2)OCO3)[C@@H](C)CN([C@@H](C)CO)C(=O)c2cc(NC(=O)C3CCCCC3)ccc2O1`, the relative growth was inactive: 1.03.
For `COCC#Cc1ccc2c(c1)O[C@@H](CN(C)Cc1ccc3c(c1)OCO3)[C@H](C)CN([C@@H](C)CO)S2(=O)=O` the value was inactive: 1.03.
For `COc1ccc([Si](C)(C)[C@H]2[C@H](CCn3cc([C@H](O)c4ccccc4)nn3)O[C@@]3(C(=O)N(Cc4ccc(N5C(=O)c6cccc7cccc5c67)cc4)c4ccccc43)[C@@H]2C)cc1` the value was inactive: 1.02.
For `O=C1NC(=O)C(c2cnc3ccccn23)=C1c1cn2c3c(cc(F)cc13)CN(C(=O)N1CCCCC1)CC2` the value was inactive: 1.01; for `O=C(C[C@@H]1C[C@H]2c3cc(NC(=O)Cc4ccncc4)ccc3O[C@H]2[C@H](CO)O1)NCc1cc(F)ccc1F`, inactive: 1; for `C[C@H](CO)N1C[C@H](C)[C@@H](CN(C)C(=O)Cc2cccnc2)Oc2cc(-c3cncnc3)ccc2S1(=O)=O`, inactive: 0.995.
On to `C[C@H]1CN([C@@H](C)CO)C(=O)c2ccccc2-c2ccccc2CO[C@H]1CN(C)C(=O)c1cc(Cl)cc(Cl)c1`, for which the relative growth is inactive: 0.989.
With `C[C@H](CO)N1C[C@H](C)[C@H](CN(C)C(=O)c2ccccc2)OCCCC[C@H](C)Oc2ccc(NC(=O)NC3CCCCC3)cc2C1=O` the figure was inactive: 0.978; with `C[n+]1ccc(/C2=C3\C=CC(=N3)/C(c3cc[n+](C)cc3)=c3/cc/c4[n]3[Fe][n]3c2ccc3/C(c2cc[n+](C)cc2)=C2/C=CC(=N2)\C=4c2cc[n+](C)cc2)cc1`, inactive: 0.703; with `Cc1noc(C)c1S(=O)(=O)Nc1cccc2c1O[C@@H](CN(C)Cc1ccccc1)[C@@H](C)CN([C@H](C)CO)C2=O`, inactive: 0.865.
With `CO[C@H]1CN(C)C(=O)c2cc(NC(=O)Nc3ccccc3F)ccc2OC[C@@H](C)N(Cc2ccccc2C(=O)O)C[C@@H]1C` the figure was inactive: 0.972; with `CO[C@H]1CN(C)C(=O)c2ccc(NS(C)(=O)=O)cc2OC[C@@H](C)N(C(=O)C2CCCCC2)C[C@@H]1C`, inactive: 0.901.
For `COc1ccc(S(=O)(=O)N(C)C[C@@H]2Oc3c(NC(=O)c4cc(C)nn4C)cccc3C(=O)N([C@@H](C)CO)C[C@@H]2C)cc1` the value was inactive: 0.975; for `COc1ccc(NC(=O)N(C)C[C@H]2Oc3ncc(C#C[C@H](C)O)cc3C(=O)N([C@@H](C)CO)C[C@@H]2C)cc1`, inactive: 0.981; for `C[C@@H]1CCCCO[C@H](CN(C)C(=O)Nc2cccc3ccccc23)[C@H](C)CN([C@H](C)CO)C(=O)c2cc(NS(C)(=O)=O)ccc2O1`, inactive: 0.916.
`Cc1noc(C)c1NC(=O)Nc1ccc2c(c1)C(=O)N([C@@H](C)CO)C[C@@H](C)[C@H](CN(C)C(=O)Nc1cccc3ccccc13)O2`: the relative growth was inactive: 1.
In the case of `C[C@H](CO)N1C[C@H](C)[C@@H](CN(C)Cc2ccncc2)Oc2ccc(NC(=O)c3ccncc3)cc2CC1=O`, the relative growth was inactive: 0.986.
For `COc1ccc(NC(=O)Nc2ccc3c(c2)CC(=O)N([C@@H](C)CO)C[C@H](C)[C@@H](CN(C)Cc2ccc(C(=O)Nc4ccccc4N)cc2)O3)cc1` the value was inactive: 0.992; for `COc1ccc(NC(=O)N(C)C[C@H]2Oc3c(NC(=O)C4CC4)cccc3C(=O)N([C@@H](C)CO)C[C@H]2C)cc1`, inactive: 0.999.
For `Cc1ccc(-c2ccc3c(c2)O[C@H](CN(C)Cc2cncnc2)[C@@H](C)CN([C@H](C)CO)S3(=O)=O)cc1` the value was inactive: 1.02.
For the molecule `C[C@@H]1CN([C@H](C)CO)C(=O)CCCn2cc(nn2)CO[C@@H]1CN(C)S(=O)(=O)c1cn(C)cn1`, the relative growth was inactive: 0.977.
For `C[C@@H]1[C@@H]([Si](C)(C)F)[C@H](CCn2cc([C@H](O)c3ccccc3)nn2)O[C@@]12C(=O)N(c1ccccc1)c1ccccc12` the value was inactive: 1.
For `CO[C@@H]1CN(C)C(=O)c2ccc(NC(=O)c3ccccc3)cc2OC[C@H](C)N(C(=O)CN(C)C)C[C@@H]1C` the value was inactive: 1.01.
Regarding `C[C@@H]1CCCCO[C@@H](CN(C)C)[C@@H](C)CN([C@@H](C)CO)C(=O)c2cc(NS(=O)(=O)c3cn(C)cn3)ccc2O1`, the relative growth was inactive: 0.916.
For `C[C@H](CO)N1C[C@H](C)[C@H](CN(C)Cc2cccc(C(F)(F)F)c2)Oc2ncc(-c3cccc(C(F)(F)F)c3)cc2C1=O` the value was inactive: 1.02; for `C[C@@H]1CN([C@@H](C)CO)C(=O)c2cccc(NC(=O)CCCCCC(=O)Nc3ccccc3N)c2O[C@@H]1CN(C)C(=O)Nc1ccc(F)cc1`, inactive: 0.993; for `C[C@H]1CN([C@@H](C)CO)C(=O)c2cc(NC(=O)Nc3ccc(C(F)(F)F)cc3)ccc2O[C@@H]1CN(C)Cc1ccc(C(F)(F)F)cc1`, inactive: 1.01.
For `C[C@H](CO)N1C[C@H](C)[C@@H](CN(C)Cc2cccc3c2OCCCO3)OCc2cn(nn2)CCCC1=O` the value was inactive: 1.
For `C[C@H](CO)N1C[C@H](C)[C@@H](CN(C)S(C)(=O)=O)Oc2ccc(NS(=O)(=O)c3cn(C)cn3)cc2C1=O` the value was inactive: 0.976; for `O=C1C(CCS(=O)c2ccccc2)C(=O)N(c2ccccc2)N1c1ccccc1` (configuration not stated), inactive: 1.09.
Take `COc1ccc(S(=O)(=O)N(C)C[C@H]2Oc3ccc(NC(=O)Cn4cnnn4)cc3C(=O)N([C@@H](C)CO)C[C@H]2C)cc1`: the relative growth is inactive: 0.985.
With `O=C1N[C@H](Cc2c[nH]c3ccccc23)COC(=O)[C@@H](Cc2ccc(F)cc2)CCC=CC[C@H]1CC(=O)N(CCO)Cc1ccccc1` the figure was inactive: 1.03; with `CC(C)NC(=O)Nc1ccc2c(c1)C(=O)N([C@H](C)CO)C[C@H](C)[C@@H](CN(C)Cc1ccccc1)OCCCC[C@@H](C)O2`, inactive: 0.999; with `C[C@H](CO)N1C[C@H](C)[C@H](CN(C)Cc2ccc(C(=O)O)cc2)Oc2ccc(NC(=O)C3CC3)cc2C1=O`, inactive: 1.
For `O=C1N[C@H]2[C@@H]1[C@@H]1C=C[C@H]2C1` the value was inactive: 1; for `COc1cc2c(cc1OC)CN(C(=O)[C@@H]1[C@H]3C(=O)O[C@H](c4ccccc4)[C@H](c4ccccc4)N3[C@H](c3ccc(O)cc3)[C@@]13C(=O)Nc1ccccc13)CC2`, inactive: 1.03.
`C[C@@H]1CCCCO[C@@H](CN(C)C(=O)Nc2cccc3ccccc23)[C@@H](C)CN([C@H](C)CO)C(=O)c2cc(NC(=O)CCC(F)(F)F)ccc2O1`: the relative growth was inactive: 1.01.
Turning to `C[C@H](CO)N1C[C@H](C)[C@@H](CN(C)S(=O)(=O)c2ccc(F)cc2)OCCCC[C@H](C)Oc2ccc(NC(=O)Nc3ccc(F)cc3)cc2C1=O`, the relative growth is inactive: 1.03.
For `C[C@@H]1CCCCO[C@@H](CN(C)Cc2ccc(C(F)(F)F)cc2)[C@H](C)CN([C@@H](C)CO)C(=O)c2cc(N(C)C)ccc2O1` the value was inactive: 0.976; for `NCCCC(O)(P(=O)(O)O)P(=O)(O)O`, inactive: 1.01; for `C[C@H]1CN([C@@H](C)CO)C(=O)Cc2cc(NS(=O)(=O)c3cccs3)ccc2O[C@H]1CN(C)S(=O)(=O)c1ccc(F)cc1`, inactive: 0.978.
With `COc1ccccc1CNC(=O)C[C@H]1C[C@@H]2c3cc(NC(=O)C4CCOCC4)ccc3O[C@@H]2[C@@H](CO)O1` the figure was inactive: 0.974.
For `O=C(NOC[C@H](O)CO)c1cc(Br)c(F)c(F)c1Nc1ccc(I)cc1F` the value was inactive: 1.
With `CC[C@H]1OC(=O)C[C@@H](O)[C@H](C)[C@@H](O[C@@H]2O[C@H](C)C[C@H](N(C)C)[C@H]2O)[C@@H](CC=O)C[C@@H](C)C(=O)/C=C/[C@]2(C)O[C@H]2[C@@H]1C`, the relative growth is active: 0.149.
For `Nc1nnc(CC(=O)N2CCCCC2)o1` the value was inactive: 1.
With `C[C@@H]1CN([C@@H](C)CO)C(=O)c2cccc(NC(=O)Nc3ccc(C(F)(F)F)cc3)c2O[C@@H]1CN(C)Cc1ccccc1` the figure was inactive: 0.995; with `COc1ccc(C(=O)Nc2ccc3c(c2)C(=O)N(C)[C@@H]2CC[C@H](CC(=O)NCC4CC4)O[C@H]2CO3)cc1`, inactive: 1.03.
With `C[C@H]1CN([C@@H](C)CO)C(=O)c2cccc(NC(=O)CCCCCC(=O)Nc3ccccc3N)c2O[C@@H]1CN(C)Cc1ccc(-c2ccccc2)cc1` the figure was inactive: 0.867; with `Cc1ccc(S(=O)(=O)Nc2ccc3c(c2)C(=O)N([C@H](C)CO)C[C@@H](C)[C@@H](CN(C)CC2CC2)O3)cc1`, inactive: 0.986.
For `C[C@@H]1CN([C@H](C)CO)C(=O)c2cc(NC(=O)Nc3ccccc3)ccc2O[C@@H]1CN(C)Cc1ccc(Oc2ccccc2)cc1`, the relative growth is inactive: 1.01.
With `CNC(=O)C(=O)Nc1ccc(C)c(F)c1` the figure was inactive: 0.975; with `CCCNC(=O)N1C[C@H](C)[C@H](OC)CN(C)C(=O)c2ccc(NS(=O)(=O)CC(F)(F)F)cc2OC[C@@H]1C`, inactive: 0.963; with `Nc1ncn(C[C@@H](O)CO)c2nc(Br)nc1-2`, inactive: 0.957.
For `C[C@@H]1CN([C@@H](C)CO)S(=O)(=O)c2ccc(C#C[C@@H](C)O)cc2O[C@@H]1CN(C)C` the value was inactive: 0.978; for `C[C@H]1O[C@@H](O[C@H]2[C@@H](O)C[C@H](O[C@H]3[C@@H](O)C[C@H](O[C@H]4CC[C@@]5(C)[C@H](CC[C@@H]6[C@@H]5C[C@@H](O)[C@]5(C)[C@@H](C7=CC(=O)OC7)CC[C@]65O)C4)O[C@@H]3C)O[C@@H]2C)C[C@H](O)[C@@H]1O`, inactive: 1.04.
Turning to `COc1ccccc1NC(=O)N(C)C[C@H]1Oc2ncc(C#CC(C)C)cc2C(=O)N([C@H](C)CO)C[C@@H]1C`, the relative growth is inactive: 0.982.
For `C[C@@H]1CCCCO[C@@H](CN(C)C(=O)NC2CCCCC2)[C@H](C)CN([C@H](C)CO)C(=O)c2cc(NS(=O)(=O)c3cccs3)ccc2O1` the value was inactive: 0.994.
